Reference: PubChem BioAssay AID485294 (National Center for Advancing Translational Sciences (NCATS), 2010)
About 150 (0.041%) of roughly 370,000 compounds were called active. The inconclusive results got no clear call from the source; some entries with a clear call stand among them for comparison. Calls come from the whole dose curve; as a rule, active = well fitted inhibition curve with a large enough effect; inconclusive = small, poorly fitted or top-dose-only effect; inactive = flat fitted curve, though single readings scatter. No potency is given beside an inconclusive call; the fits are too rough.

Molecular target: Beta-lactamase (Escherichia coli (strain K12)) (UniProt P00811)
Assay: qHTS Inhibitors of AmpC Beta-Lactamase (assay with detergent); note: nearly all actives have a fitted effect of over 25% in size
Conditions: AmpC hydrolysis of nitrocefin, absorbance 480 nm, 0.01% Triton; series mostly up to 114 µM
Summary of the method: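 20 mM phosphate pH 7.0 + 0.01% (detergent screen) or 0.0001% Triton X-100; 5.3 nM AmpC reagent; cpd preinc 15 min RT; nitrocefin (800 uM stock) to start; A480 q20 s × 4 min; Activity was normalised to no-enzyme and no-compound control wells.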
Potency is the fitted concentration of half-maximal effect; tags give direction and shape of the fitted curve.

Chain of UniProt P00811 (P00811 whole entry, looked up): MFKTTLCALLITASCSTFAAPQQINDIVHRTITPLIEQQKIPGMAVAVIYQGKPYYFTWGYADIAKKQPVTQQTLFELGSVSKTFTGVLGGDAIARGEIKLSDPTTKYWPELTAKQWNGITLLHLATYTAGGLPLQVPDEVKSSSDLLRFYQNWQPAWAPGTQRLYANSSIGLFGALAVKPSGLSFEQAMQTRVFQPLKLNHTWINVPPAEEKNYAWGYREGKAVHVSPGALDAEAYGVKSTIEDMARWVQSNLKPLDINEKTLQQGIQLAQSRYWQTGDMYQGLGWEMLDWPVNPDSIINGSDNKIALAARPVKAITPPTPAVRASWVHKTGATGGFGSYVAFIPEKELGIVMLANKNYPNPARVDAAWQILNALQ

Row | SMILES | Potency
1 | Cn1c(=O)n(C)c2cc3[nH]cnc3cc21 | inactive
2 | COc1ccc(N2CCN(S(=O)(=O)c3ccc4c(c3)NC(=O)C(C)C(=O)N4)CC2)cc1 (stereo not drawn) | inconclusive [inhibitor, partial curve, poor fit]
3 | CCCCN(CCCC)CC(O)COc1ccccc1Br (stereo not drawn) | inconclusive [inhibitor, single point]
4 | CC(NC(N)=O)C12CC3CC(CC(C3)C1)C2 (stereo not drawn) | inconclusive [inhibitor, full curve]
5 | Cc1c(Br)cc(C(=O)NCCCN2CCOCC2)c(C)c1C | inconclusive [inhibitor, full curve, poor fit]
6 | C/C(N)=C(/C#N)C(=O)CSc1nnc(Nc2cccc(C)c2)s1 | inconclusive [inhibitor, full curve]
7 | Cc1cc(NC(=O)c2cncc(Br)c2)ccc1NC(=O)c1cc2ccccc2o1 | inconclusive [inhibitor, partial curve]
8 | COc1cc(OC)cc(-c2nnc(SCc3cccnc3)o2)c1 | inactive
9 | CC1CCN(C(=O)Cn2c(=O)n(Cc3ccc4c(c3)OCO4)c(=O)c3ccccc32)CC1 | inconclusive [inhibitor, single point]
10 | CCOc1ccc(CCNC(=O)c2ccc(C)c(N3CCCC3=O)c2)cc1OCC | inconclusive [inhibitor, single point]
11 | COc1ccc(F)cc1S(=O)(=O)Nc1cc2c3c(c1)CC(=O)N3CCC2 | inconclusive [inhibitor, single point]
12 | COc1ccccc1C(=O)Nc1c(C(=O)Nc2cc(Cl)ccc2C)sc2nc(C)cc(C)c12 | inactive
13 | CCCCNC(=O)c1ccc2c(c1)N(CC)C(=O)c1ccccc1S2(=O)=O | inconclusive [inhibitor, full curve, poor fit]
14 | Cc1ccc(NC(=O)c2ccc(NC(=O)N3CCSc4ncccc43)cc2)c(Cl)c1 | inactive
15 | FC(F)(F)c1nnc(-c2ccccc2)nc1N1CCOCC1 | inconclusive [inhibitor, full curve, poor fit]
16 | O=C1C(N2CCOCC2)=C(n2nnc3ccccc32)C(=O)c2ccccc21 | inconclusive [inhibitor, full curve, poor fit]
17 | CC(C)Cn1c(=S)[nH]c2ccccc2c1=O | inconclusive [inhibitor, partial curve]
18 | N#Cc1c(-c2ccccc2F)cc(-c2cccnc2)nc1N | inconclusive [inhibitor, full curve, poor fit]
